Values marked as one replicate rest on one cluster of the flow cell; about a third of the high ones do not repeat.
Tested on: ATP
Experiment: switch fluorescence ratio, 500 uM ATP over buffer (Cy3 cluster intensity, sum of 5 cycles each) (fold (ratio)); higher = stronger signal-on switching upon ATP binding; sequences stand for … in TCGTCGGCAGCGTCAGATGTGTATAAGAGACAGTTTTTTTTTTTTTTTTTTTTTTTTT…TC
Details: aptamer strand: ATP DNA aptamer (quencher-CACCTGGGGGAGTATTGCGGAGGAAGG + anchor), 100 nM annealed; ATP concentration: 500 uM; one replicate
In short: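 Cy3-labelled switching-strand clusters on a modified Illumina MiSeq flow-cell were annealed to 100 nM quencher-labelled ATP aptamer, imaged in selection buffer, then imaged after 15 min with 500 uM ATP at 22 °C. Five buffer/ATP cycles ran, with NaOH stripping and re-annealing between them. The fluorescence ratio is summed target-cycle over summed buffer-cycle Cy3 intensity per cluster, averaged per switch-domain sequence. Clusters outside 100-1000 RFU were excluded.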
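Note: ATP exposure 15 min at 22 °C before imaging.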

| Sequence | switch fluorescence ratio |
| --- | --- |
| AAACGGTCTG | 0.995 |
| GTATCGAGC | 1.01 |
| CTGGAAACCG | 1.18 |
| GCTGTGCAGG | 1.04 |
| TGTGATTTG | 0.99 |
| GGTTGGGGA | 0.999 |
| ACAACCACCA | 1.14 |
| CGGGACACTG | 0.966 |
| TCCGCAGGCA | 1 |
| GAGGACATCC | 1.04 |
| GAAGCATTTG | 1.07 |
| GTGATTTAGG | 0.998 |
| TCTTAGCGTT | 0.958 |
| GACAAAACGA | 0.995 |
| CTTCCCTCAG | 1.54 |
| CAATAATTCA | 1.03 |
| TAATTATAA | 1.04 |
| AGATAAGAAA | 1.03 |
| TTAGATGTGT | 1.01 |
| GTTTTATACA | 0.989 |
| AATATGTGCT | 0.987 |
| CGATTTCGAA | 0.919 |
| CCGGTCGGGC | 1.03 |

| Sequence | switch fluorescence ratio |
| --- | --- |
| TCCGCACGGT | 1.56 |
| ATTTGCTTCA | 1.02 |
| GCGCATCTCT | 1.13 |
| TTCAGCAACA | 1.13 |
| TGTTGGTTAT | 1.01 |
| CTATTTCAGC | 0.986 |
| TTTTGATCTC | 1.06 |
| GTCAGGTACT | 1.03 |
| TCCGATTCAA | 4.89 |
| TGTACACAC | 1.39 |
| CATGACTTCG | 0.987 |
| CAGTCCTTTA | 0.897 |
| GCGATCCGAC | 1.49 |
| TGAGACACCC | 1.1 |
| AAGATCTATA | 1 |
| ATGTGTTAAA | 1.01 |
| CCTCGTCCGT | 1.27 |
| CGGAACTTGA | 1.05 |
| GTTGAGTCCC | 1 |
| CAGCTTGGGA | 1.01 |
| ACTTAGTCTG | 1.1 |
| ATTAAAGAAG | 0.988 |
| AAACTGTAGC | 1.16 |

| Sequence | switch fluorescence ratio |
| --- | --- |
| TACCAAGTCA | 1.02 |
| AAAGTGAAGT | 0.94 |
| TTGTCACAC | 1.01 |
| GATGGGATGT | 0.98 |
| AGTACTGGAC | 1.19 |
| GACGCTCAGG | 1.13 |
| TAGGGCTGT | 0.973 |
| CCACGGTCTC | 1.02 |
| ATGAGATTCT | 1.01 |
| GGCTGTGGTT | 0.986 |
| GCGATTCAGT | 1.01 |
| TTTCTCGACT | 1.08 |
| GCTCTGCTCG | 1 |
| AAGGGACCCG | 1.06 |
| AGGGTTCTAT | 0.955 |
| TTACCAAGA | 1.02 |
| AACCACGATG | 1.11 |
| GCAACGCAGC | 1.17 |
| TATTTACCTT | 1.09 |
| GCGTTACAGG | 1.02 |
| CACTGTATC | 1.32 |
| TGGGCATGAT | 0.977 |
| GGTTCTTCCG | 1.14 |

| Sequence | switch fluorescence ratio |
| --- | --- |
| CCCAGTTACG | 1.04 |
| GTTATAGGTA | 1.01 |
| GATGCACTTG | 1.01 |
| GATTAGAAC | 0.99 |
| TCCGGTGGGG | 0.964 |
| AGTGGAGTTA | 0.986 |
| TACAGCCCAC | 1.18 |
| GCCGCGCGTA | 0.96 |
| AGGTGCGCCT | 0.965 |
| GAATAATCG | 0.972 |
| GTCCGGTGTG | 0.993 |
| GTCCTCCGGA | 1.46 |
| CATCCATTGG | 0.996 |
| ATTTTATACC | 1.01 |
| CGTGCTTGTC | 0.933 |
| ACCTGGCGA | 1.05 |
| GTTTGTCTAG | 0.984 |
| CTTTAAGCAG | 1.08 |
| CATGGTGGG | 1.02 |
| ATTCGGGACT | 1 |
| GATTAGTGAT | 0.986 |
| GCTTATCCCG | 1.06 |
| CTATCCGTCG | 1.09 |

| Sequence | switch fluorescence ratio |
| --- | --- |
| GTCGGCAGCT | 0.97 |
| AATTTTAATA | 1.02 |
| TAGCCTGACT | 1.16 |
| GGTACCGGGA | 0.956 |
| TAGCTTTGTA | 0.986 |
| ACTCGATGAA | 0.983 |
| GAAGCGGGGT | 0.926 |
| ATAAATTGAA | 1 |
| TGAACAGACG | 1.05 |
| TCGACGTGAA | 1.36 |
| GATCCCGGAG | 1.01 |
| ATTGCACTGT | 1.04 |
| CCTGCAGGTT | 3.71 |
| GCTAGAGG | 0.981 |
| GAGTATAGTT | 0.962 |
| TACAGGAACA | 1.04 |
| GTGTTCCACG | 0.997 |
| AAAGTCGGGG | 0.98 |
| TTACTGTATA | 1.19 |
| CTGTAAAACT | 1.01 |
| CTGTGGAAAC | 1 |
| GTATAGTATT | 0.974 |
| CACTGTTAC | 1.4 |

| Sequence | switch fluorescence ratio |
| --- | --- |
| ACTTCTGGTT | 1.01 |
| TACGGTACT | 1.56 |
| TCCTACTAAG | 1.04 |
| ATTGGCTCTC | 1.02 |
| ACAGAGCAGT | 1.53 |
| TGGTAGACAG | 0.991 |
| CGGGAGGACC | 1.01 |
| GGGAGTGTTC | 1.01 |
| CTGTTTGCTT | 1.01 |
| GCCTATTATT | 1.02 |
| GCGGAATTAG | 1.01 |
| TATTGGGCTC | 0.937 |
| TTTGCTCCTT | 1 |
| GATCTTTTCA | 0.986 |
| ACAAAACGTA | 0.984 |
| ATTAATGTCT | 0.944 |
| AGGCCAACAG | 1.01 |
| TAAGTTGAAC | 0.993 |
| TGGACCCCTT | 1.04 |
| CAAAGTGT | 1 |
| AACTGCCGGT | 1.03 |
| CGTGCCGCCG | 0.963 |
| CGGGTTATCA | 0.94 |

| Sequence | switch fluorescence ratio |
| --- | --- |
| GAAAATCGTC | 1.04 |
| GAGAGAGATA | 0.995 |
| GACAGCGCT | 1.04 |
| AACTAAACGC | 1.06 |
| ATCTTCTGTG | 1.01 |
| CGGTTTAGCC | 0.994 |
| GGCACTCGTT | 1.01 |
| AGGGACGTTG | 1.03 |
| GATGGGATTA | 1.09 |
| GGTGGACAGG | 0.955 |
| AACTATCCTT | 0.959 |
| TACGTTAGAG | 1.08 |
| CGCGACCTGC | 1.11 |
| ACATCGCTTA | 1.12 |
| TTTAGAAAGC | 0.984 |
| GCTTGCTGTG | 0.939 |
| AATGAAACGT | 1.08 |
| TTTCGACGAA | 1 |
| TATGTCTTTG | 1.04 |

Reference: the supplement of paper PMC10126150
